Results taken from the RNAGym collection of RNA variant scans (doi:10.7554/elife.90254).
Read counts are not given, so values of variants with three or more changes are uncertain.

B1: LINE1-mini (parent)
chain: GGCAGAGCUCAACACAGCGUGGCAAAGUGGCUGUGGCUAGACUGCC

Variants of: B1
Experiment: self-cleavage, relative activity (ratio to wild type); higher = more cleavage; in vitro, sequencing; the parent is a self-cleaving ribozyme

Q: With G1U C10U C45A as the variant, how does the self-cleavage read?
A: The self-cleavage was 0.63.

Q: Which self-cleavage does the source give for G2A A25U A41U G44U here?
A: The self-cleavage was 0.16.

Q: For G1U G2A G7U G21U, which self-cleavage is on record?
A: Its self-cleavage is 0.21.

Q: With G2A C8A G30A G40A as the variant, how does the self-cleavage read?
A: Its self-cleavage is 0.37.

Q: With G1U C31A C46A as the variant, how does the self-cleavage read?
A: Its self-cleavage is 0.08.

Q: For G2A A4C C18U G22C G33U U34A, which self-cleavage is on record?
A: The self-cleavage was 0.08.

Q: For G2A A12C A25C G35C A39G G40U G44C, which self-cleavage is on record?
A: The self-cleavage was 0.05.

Q: With G1U C18U G36A as the variant, how does the self-cleavage read?
A: The self-cleavage was 0.06.

Q: With G2A A26C U43G as the variant, how does the self-cleavage read?
A: Its self-cleavage is 0.31.

Q: Which self-cleavage does the source give for G1U G5A C10G here?
A: The self-cleavage was 0.02.

Q: With G1U G27C G29C G30A A39G as the variant, how does the self-cleavage read?
A: The self-cleavage was 0.07.

Q: With G1U G19C C42A as the variant, how does the self-cleavage read?
A: The self-cleavage was 0.02.

Q: Which self-cleavage does the source give for G1U G19C C42U here?
A: Its self-cleavage is 0.05.

Q: Which self-cleavage does the source give for G1U G5C U34G here?
A: The self-cleavage was 0.09.

Q: With G2A A4C G17U G27C G33U as the variant, how does the self-cleavage read?
A: The self-cleavage was 0.14.

Q: With G2A A11U G21C A26U as the variant, how does the self-cleavage read?
A: Its self-cleavage is 0.11.

Q: For G1U C15U A16C, which self-cleavage is on record?
A: The self-cleavage was 0.

Q: Which self-cleavage does the source give for G1U G2A C15U A25U G36A here?
A: The self-cleavage was 0.22.

Q: Which self-cleavage does the source give for G2A A12C C18G U34G G36A here?
A: The self-cleavage was 0.01.

Q: Which self-cleavage does the source give for G2A C3U G7C G21U C23U G27U G33C here?
A: The self-cleavage was 0.29.

Q: With G1U U20C C45U as the variant, how does the self-cleavage read?
A: Its self-cleavage is 0.69.

Q: Which self-cleavage does the source give for G2A C3G C10U G19U C42A G44C here?
A: The self-cleavage was 0.07.

Q: For G2A A11C A39U G44U, which self-cleavage is on record?
A: The self-cleavage was 0.12.

Q: For G2A A6U C8U, which self-cleavage is on record?
A: The self-cleavage was 0.03.

Q: Which self-cleavage does the source give for G2A C8A G17U here?
A: The self-cleavage was 0.16.

Q: For G1U G33A A39G, which self-cleavage is on record?
A: The self-cleavage was 0.06.

Q: Which self-cleavage does the source give for G1U G17A C31A C42U here?
A: The self-cleavage was 0.04.

Q: For G2A A16C C18A G30A, which self-cleavage is on record?
A: The self-cleavage was 0.3.

Q: With G2A A24G G33C G36C C42A as the variant, how does the self-cleavage read?
A: The self-cleavage was 0.03.

Q: With G1U G2U G7C as the variant, how does the self-cleavage read?
A: The self-cleavage was 0.05.

Q: Which self-cleavage does the source give for G1U G17U C37U A39U here?
A: The self-cleavage was 0.02.

Q: With G1U U9G U28G G36A C37A as the variant, how does the self-cleavage read?
A: The self-cleavage was 0.04.

Q: Which self-cleavage does the source give for G2A C10A A41C U43A here?
A: The self-cleavage was 0.03.

Q: For G2A A12G A14U, which self-cleavage is on record?
A: Its self-cleavage is 0.06.

Q: For G2A C8A U32C, which self-cleavage is on record?
A: Its self-cleavage is 0.68.

Q: With G1U G2A C3U as the variant, how does the self-cleavage read?
A: The self-cleavage was 0.26.

Q: With G1U G2A C3A as the variant, how does the self-cleavage read?
A: Its self-cleavage is 1.08.

Q: Which self-cleavage does the source give for G1U U28G U38A here?
A: The self-cleavage was 0.06.

Q: For G1U C31U A41U, which self-cleavage is on record?
A: Its self-cleavage is 0.04.

Q: Which self-cleavage does the source give for G1U U20C A39C C45G here?
A: The self-cleavage was 0.02.

Q: With G1U G2U C18U G19A G29U U32G U34A as the variant, how does the self-cleavage read?
A: The self-cleavage was 0.04.

Q: Which self-cleavage does the source give for G2A A14U G36U G40A A41U here?
A: Its self-cleavage is 0.13.

Q: With G2A C3U A4G as the variant, how does the self-cleavage read?
A: The self-cleavage was 0.05.

Q: For G1U G7C A12C, which self-cleavage is on record?
A: Its self-cleavage is 0.01.

Q: With G2A C3U A6C C18U C42A as the variant, how does the self-cleavage read?
A: The self-cleavage was 0.28.

Q: With G2A A6G G17A U34C as the variant, how does the self-cleavage read?
A: The self-cleavage was 0.03.

Q: For G1U C15A A39G, which self-cleavage is on record?
A: Its self-cleavage is 0.18.

Q: Which self-cleavage does the source give for G1U G19A A26C here?
A: The self-cleavage was 0.23.

Q: For G1U G17U A26U G29C G33A U38A A41G C42U, which self-cleavage is on record?
A: Its self-cleavage is 0.02.

Q: For G2A C10U G29A, which self-cleavage is on record?
A: The self-cleavage was 0.34.

Q: Which self-cleavage does the source give for G1U G2A A16G A25C U28G G30A here?
A: Its self-cleavage is 0.03.

Q: Which self-cleavage does the source give for G2A C15A G21U U32A G33U C37A C45G here?
A: Its self-cleavage is 0.1.

Q: With G1U C23A G29C C42U as the variant, how does the self-cleavage read?
A: Its self-cleavage is 0.05.

Q: With G2A C8A C18G A25U as the variant, how does the self-cleavage read?
A: Its self-cleavage is 0.23.

Q: For G2A C10A A16C G22A, which self-cleavage is on record?
A: The self-cleavage was 0.01.

Q: With G2A A6G C15A as the variant, how does the self-cleavage read?
A: The self-cleavage was 0.01.

Q: With G1U G7C C45A as the variant, how does the self-cleavage read?
A: Its self-cleavage is 0.02.

Q: Which self-cleavage does the source give for G1U C13A A16C G17U U28A C45A here?
A: The self-cleavage was 0.09.

Q: For G1U G2U C13A G19A C23A A39U C42U C45U, which self-cleavage is on record?
A: The self-cleavage was 0.

Q: For G2A C13U U32G U34A, which self-cleavage is on record?
A: Its self-cleavage is 0.06.

Q: For G1U G7U A14U C45U, which self-cleavage is on record?
A: Its self-cleavage is 0.11.

Q: Which self-cleavage does the source give for G1U C23A U32G A41U here?
A: Its self-cleavage is 0.07.

Q: With G2A C15G G35C A41G as the variant, how does the self-cleavage read?
A: The self-cleavage was 0.02.

Q: Which self-cleavage does the source give for G1U C23A G30U here?
A: The self-cleavage was 0.29.

Q: Which self-cleavage does the source give for G1U G19C G22U G36A G40C here?
A: Its self-cleavage is 0.03.

Q: Which self-cleavage does the source give for G1U G19A A24C G40C here?
A: Its self-cleavage is 0.01.

Q: With G2A A11G A12C G27U G35C G40U C42A as the variant, how does the self-cleavage read?
A: Its self-cleavage is 0.01.

Q: Which self-cleavage does the source give for G1U U9G G22C U34C here?
A: Its self-cleavage is 0.01.

Q: With G1U C10U U20A G44C as the variant, how does the self-cleavage read?
A: The self-cleavage was 0.07.

Q: Which self-cleavage does the source give for G2A A12C G19A C23G A39G C45U here?
A: The self-cleavage was 0.

Q: For G2A C15U C42U, which self-cleavage is on record?
A: The self-cleavage was 0.14.

Q: Which self-cleavage does the source give for G1U U38A G44C here?
A: Its self-cleavage is 0.04.

Q: With G1U G21A G22U C45U as the variant, how does the self-cleavage read?
A: The self-cleavage was 0.16.

Q: For G2A C10A C18G A41U G44U, which self-cleavage is on record?
A: The self-cleavage was 0.02.

Q: Which self-cleavage does the source give for G2A A12U U34G U43G here?
A: The self-cleavage was 0.01.

Q: Which self-cleavage does the source give for G1U G2C C3A G5U G17A C23G A26G C42G here?
A: Its self-cleavage is 0.05.

Q: For G1U C13A U20A G22C, which self-cleavage is on record?
A: The self-cleavage was 0.01.

Q: For G1U U28G G29C, which self-cleavage is on record?
A: Its self-cleavage is 0.06.

Q: Which self-cleavage does the source give for G1U G22C A25U here?
A: The self-cleavage was 0.24.

Q: For G2A A4G G17U, which self-cleavage is on record?
A: The self-cleavage was 0.48.

Q: Which self-cleavage does the source give for G1U G7A C8G A12C C23A here?
A: The self-cleavage was 0.01.

Q: Which self-cleavage does the source give for G2A C10A C42A here?
A: Its self-cleavage is 0.04.

Q: With G2A C3G A12G A25U C37A as the variant, how does the self-cleavage read?
A: Its self-cleavage is 0.65.
